The supplement of paper PMC3334620
Whole data set: some 33,000 sequences, median “E-score (-0.5 to 0.5)” near -0.011, cut for the highest 2% near 0.28. The list shows a part of the results.

These sequences were tested against T1, Gcr1 (UniProt P07261) (assay: PBM E-score (8-mer binding enrichment) (E-score (-0.5 to 0.5)); higher = stronger / more preferred TF binding; most listed sequences are background and not binding sites). Conditions: protein concentration: 100 nM; construct: GST-full length.
T1 sequence: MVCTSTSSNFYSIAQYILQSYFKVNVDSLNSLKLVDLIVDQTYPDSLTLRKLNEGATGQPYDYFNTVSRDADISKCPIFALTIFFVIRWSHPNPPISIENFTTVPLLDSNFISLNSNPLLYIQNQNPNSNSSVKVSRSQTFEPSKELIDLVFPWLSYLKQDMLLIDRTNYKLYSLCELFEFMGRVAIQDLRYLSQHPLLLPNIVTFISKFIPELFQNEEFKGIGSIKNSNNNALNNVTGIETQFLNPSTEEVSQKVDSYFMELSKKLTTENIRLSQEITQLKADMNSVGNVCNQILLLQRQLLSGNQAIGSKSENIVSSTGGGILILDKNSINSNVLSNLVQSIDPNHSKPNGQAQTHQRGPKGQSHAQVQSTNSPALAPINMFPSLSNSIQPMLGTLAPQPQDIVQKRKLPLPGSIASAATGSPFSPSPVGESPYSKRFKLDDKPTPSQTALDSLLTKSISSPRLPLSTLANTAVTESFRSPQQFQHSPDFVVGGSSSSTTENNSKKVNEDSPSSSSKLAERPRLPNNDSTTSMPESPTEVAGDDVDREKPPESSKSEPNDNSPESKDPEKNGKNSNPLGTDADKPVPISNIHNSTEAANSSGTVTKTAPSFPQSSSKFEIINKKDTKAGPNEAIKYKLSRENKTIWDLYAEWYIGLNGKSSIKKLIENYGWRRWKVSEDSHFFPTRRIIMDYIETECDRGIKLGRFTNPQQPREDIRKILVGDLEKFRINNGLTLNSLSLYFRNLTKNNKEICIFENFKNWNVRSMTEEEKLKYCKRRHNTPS
Summary of the method: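 Masliner-normalised scans of fluorescent anti-GST signal were the basis for scoring. That signal came from GST-tagged yeast transcription factors applied at about 100-200 nM to double-stranded universal all-10-mer Agilent arrays on fresh or once-stripped slides. Each ungapped eight-base word, pooled with its reverse complement, received an E-score from the Universal PBM Analysis Suite.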
In the case of CAATACAA, the “PBM E-score” value is reported as 0.139. For AAAAGATT, the “PBM E-score” value was 0.0313. In the case of CAGAGCTA, the “PBM E-score” value is reported as -0.204. CGCACAAG was tested, and the “PBM E-score” value was -0.0834. In the case of ACAGATGC, the “PBM E-score” value is reported as 0.0196. With AGTGACTA the “PBM E-score” value was -0.0431. For AACAAACC, the “PBM E-score” value was -0.28. In the case of AACCGACT, the “PBM E-score” value is reported as -0.0108. In the case of CGACTGCA, the “PBM E-score” value is reported as -0.0389. With CATCTCCC the “PBM E-score” value was -0.0806. For CTCACCCC, the “PBM E-score” value was -0.117. In the case of CGCCGCGA, the “PBM E-score” value is reported as 0.0448. For GTTAACTA, the “PBM E-score” value was 0.00411. CGTCCCAA was tested, and the “PBM E-score” value was -0.0449. In the case of CCTCATAC, the “PBM E-score” value is reported as -0.0756. TCAGTAAA was tested, and the “PBM E-score” value was -0.0235. CTCAAGAC was tested, and the “PBM E-score” value was -0.0606. In the case of ACCTATAG, the “PBM E-score” value is reported as 0.161. In the case of AGGCCATG, the “PBM E-score” value is reported as -0.179. With GCAAAAAC the “PBM E-score” value was 0.0812. With GTTGAAAA the “PBM E-score” value was 0.0974. With AAGGCGAG the “PBM E-score” value was -0.0782. In the case of CAGTTCAG, the “PBM E-score” value is reported as -0.125. With AAAATTAC the “PBM E-score” value was -0.0115. With ATGAAAAT the “PBM E-score” value was 0.033. With TAAGAGGA the “PBM E-score” value was 0.0364. ATGGCCAC was tested, and the “PBM E-score” value was -0.138. CTGTAAGA was tested, and the “PBM E-score” value was 0.0348. For CCGTCTAA, the “PBM E-score” value was 0.0045. With CTGAAGAA the “PBM E-score” value was 0.0978. With CTCACCAC the “PBM E-score” value was -0.18. TAACCTAA was tested, and the “PBM E-score” value was 0.167. For AACCGGTA, the “PBM E-score” value was 0.201. With ACCGTGTA the “PBM E-score” value was -0.163. TAAGCTGA was tested, and the “PBM E-score” value was -0.144. With CAATCCAC the “PBM E-score” value was 0.0517. With GTATGCAA the “PBM E-score” value was 0.0117. With GAATTGGC the “PBM E-score” value was -0.0622. In the case of ATAAACAT, the “PBM E-score” value is reported as 0.064. With AGCTTTAG the “PBM E-score” value was -0.159. CCTTGGGC was tested, and the “PBM E-score” value was -0.201. CTCTAGAA was tested, and the “PBM E-score” value was 0.0655. GGGAGAGA was tested, and the “PBM E-score” value was -0.166. For ATCGAATA, the “PBM E-score” value was -0.089. With AGCTGCCT the “PBM E-score” value was 0.32. For CCACCAGA, the “PBM E-score” value was 0.0834. With TAAATTCA the “PBM E-score” value was -0.0731. GTACATCA was tested, and the “PBM E-score” value was -0.0283. For TCATATAA, the “PBM E-score” value was 0.125. For GCGTGTAA, the “PBM E-score” value was 0.196. With CGCCCTAC the “PBM E-score” value was -0.0181. For AACAACTC, the “PBM E-score” value was -0.00268. CGACGTAC was tested, and the “PBM E-score” value was -0.0854. For CGTAGACG, the “PBM E-score” value was -0.0412. GTCGAAGA was tested, and the “PBM E-score” value was -0.0273. With ACGGTCCG the “PBM E-score” value was -0.105. With GGGCACAA the “PBM E-score” value was -0.0282. For CCAGATCC, the “PBM E-score” value was 0.185. GGCAAACA was tested, and the “PBM E-score” value was -0.14. CGTGCAAA was tested, and the “PBM E-score” value was -0.183. GAGAGTGC was tested, and the “PBM E-score” value was -0.155. With ACGTCGAG the “PBM E-score” value was -0.215. With GAACGTGC the “PBM E-score” value was -0.137. In the case of CCCATTAG, the “PBM E-score” value is reported as -0.0149. For ATATGAGA, the “PBM E-score” value was 0.143. For ACTAATTG, the “PBM E-score” value was 0.0974. For ACCGCAAG, the “PBM E-score” value was -0.0529. For CTTTGTCA, the “PBM E-score” value was -0.0504. GCCCCAAA was tested, and the “PBM E-score” value was 0.0887. GGCAGACA was tested, and the “PBM E-score” value was -0.0708. With TCGCTTCA the “PBM E-score” value was 0.00199. With ATAACGTC the “PBM E-score” value was 0.0192. GCTTGAAA was tested, and the “PBM E-score” value was -0.0704. In the case of GCGCTTCC, the “PBM E-score” value is reported as 0.348. In the case of CGACCTAG, the “PBM E-score” value is reported as -0.0399. In the case of AATACACC, the “PBM E-score” value is reported as 0.0929. For AGACTTCC, the “PBM E-score” value was 5e-05. For AGGAATGG, the “PBM E-score” value was 0.0654. With GATCATAC the “PBM E-score” value was -0.0831. In the case of ATTCTACC, the “PBM E-score” value is reported as -0.0245. For GATGACCA, the “PBM E-score” value was 0.0452. CACATATC was tested, and the “PBM E-score” value was -0.0664. For ATCTGAGA, the “PBM E-score” value was 0.0934. With CAAAATAA the “PBM E-score” value was 0.183. With ACGTCCTC the “PBM E-score” value was -0.112. In the case of AGATACGC, the “PBM E-score” value is reported as 0.15.
